Substitutions are numbered along the chain they refer to.
B1: 5B8: anti-CDCP1 murine monoclonal antibody (hybridoma); VH SEQ ID NO: 252, VL SEQ ID NO: 302 (antibody, V domains shown)
VH: EVQLKESGGGLVQPGGSLRISCATSGLTFTHYHMSWVRQPPGKAPEWLAIIRNKAYGYTTDYSASVRGRFTISRDDSQSILYLQMNTLRAEDSATYYCVREGGYGYDGTFAYWGQGTTVTVSS
VL: EIVLTQSPASLAVSLGQRATISCRASESVDNYGISFMSWFQQKPGQPPKLLIYAASNQGSGVPDRFSGSGSGTDFSLNIHPMEEDDTAMYFCQQSKEVPRTFGGGTKLEIK
modifications: 5B8 heavy chain variable region; 5B8 light chain variable region
B2: 8C9: anti-CDCP1 murine monoclonal antibody (hybridoma); VH SEQ ID NO: 254, VL SEQ ID NO: 304 (antibody, V domains shown)
VH: B1 VH with A90P
VL: B1 VL with E1D, V3Q, L4M, S38N
modifications: 8C9 heavy chain variable region; 8C9 light chain variable region
B3: 19F7D6: anti-CDCP1 murine monoclonal antibody (hybridoma); VH SEQ ID NO: 250, VL SEQ ID NO: 300 (antibody, V domains shown)
VH: EVKLVESGGGLVKPGGSLKLSCAASGFTFSTYTMSWVRQTPEKRLEWVATISSGGIYTYYPDSVKGRFTISRDNAKDTLYLQMSSLRSEDTAVYYCSSPHSYAISYGYFDYWGQGTTVTVSS
VL: DIVMTQSPLTLSITIGQPASISCRSSQSLLDIDGKTYLNWLLQRPGQSPKRLIYLVSELDSGVPDRFTGSGSGTDFTLKISGVEAEDLGIYYCWQGTHFPYTFGGGTKLEIK
modifications: 19F7D6 heavy chain variable region; 19F7D6 light chain variable region
B4: 27D11: anti-CDCP1 murine monoclonal antibody (hybridoma); VH SEQ ID NO: 247, VL SEQ ID NO: 298 (antibody, V domains shown)
VH: EVTLKESGPGLVKPSQSLSLTCSVTGYSITSGYYWNWIRQFPGNKLDWMGYITYDDSHYYNPSLKHRLSITRDTSKNQFFLKLNSVTAEDTATYFCARGNYYANYPHAMDYWGQGTTVTVSS
VL: B1 VL with E1D, L4M, Y32S, S38N, D64A, G72R, N78S, S95N, R100W
modifications: 27D11 heavy chain variable region; 27D11 light chain variable region
B5: 4B7: anti-CDCP1 murine monoclonal antibody (hybridoma); VH SEQ ID NO: 253, VL SEQ ID NO: 303 (antibody, V domains shown)
VH: B1 VH with K5Q, E6Q, I20L, H31Y, D61E, R67K, A90T, V99A
VL: DVVMTQTPASLAVSLGQRATIS[left out - about 80 residues]FGGGTKLEIK
modifications: 4B7 heavy chain variable region; 4B7 light chain variable region
B6: 20G4: anti-CDCP1 murine monoclonal antibody (hybridoma); VH SEQ ID NO: 246, VL SEQ ID NO: 297 (antibody, V domains shown)
VH: B4 VH with T3Q, H66D
VL: EIVITQSPASLAVSLGQRASISCRASESVDHNGISFMNWFQQKPGQPPKLLIYAASNQGSGVPARFSGSGSRTDFSLSIHPMEEDDTAIYFCQQNKEVPWTFGGGTKLEIK
modifications: 20G4 heavy chain variable region; 20G4 light chain variable region
B7: 27A3: anti-CDCP1 murine monoclonal antibody (hybridoma); VH SEQ ID NO: 259, VL SEQ ID NO: 309 (antibody, V domains shown)
VH: EVQLKESGPELKKPGETVKISCKASGYTFTYYSMHWVKQTPGKGLKWMGWINTETGEPTYADDFKGRFAFSLETSDSTAYLQINNLKNEDTATYFCANAMDYWGQGTTVTVSS
VL: B3 VL with S7T, I13V, R24K, I32S, E58K, G82R, I90V, Y101H
modifications: 27A3 heavy chain variable region; 27A3 light chain variable region
B8: 3B12H9: anti-CDCP1 murine monoclonal antibody (hybridoma); VH SEQ ID NO: 239, VL SEQ ID NO: 289 (antibody, V domains shown)
VH: EVQLQQSGTVLARPGASVKMSCKASGYSFTIYWVHWVKQRPGQGLEWIGAVYPGNDDTSYNQNFKGKAKLTAVTSATTAYMELSSLTIDDSAVYYCTRHTYDEVFDYWGQGTTVTVSS
VL: B3 VL with D1E, M4L, I13V, R24K, I32S, E58K, G82R, I90V, Y101W
modifications: 3B12H9/3B12H5 heavy chain variable region; 3B12H9 light chain variable region

tested on: MDA-MB-231 cells; assay: Effect of antibody on tumor cell proliferation (CellTiter-Glo); type: cell-based, human; conditions: MDA-MB-231, 96 h
Protocol: (§1) 3000 cells (breast cancer MDA-MB-231, prostate cancer PC-3 cells)/well were plated onto 96-well plates overnight, an antibody at a final concentration of 500 nM to 0.00128 nM (100 nM to 0.000256 nM, 100, 20, 4, 0.8, 0.16, 0.032, 0.0064, 0.00128, 0.000256 nM, respectively) was added; after a 5-fold dilution across 9 concentration points and culturing in a CO2 incubator at 37° C. for 96 h, half of the medium (100 μL) was discarded, and 100 μL of CellTiter-Glo Luminescent Cell Viability assay reagent (Promega, cat #G7570) was added to detect signal values on a BMG microplate reader. The inhibition of antibody on tumor cell growth was calculated by graphpad fitting based on the signal value and antibody concentration.

B1 was tested, and the “effect on tumor cell growth (FIG. 4a)” value was “did not exhibit an effect on tumor cell growth”.
For B2, the “effect on tumor cell growth (FIG. 4a)” value was “did not exhibit an effect on tumor cell growth”.
In the case of B3, the “effect on tumor cell growth (FIG. 4a)” value is reported as “did not exhibit an effect on tumor cell growth”.

tested on: PC-3 cells; assay: as above; type: cell-based, human; conditions: PC-3, 96 h
Protocol: as §1

In the case of B1, the “effect on tumor cell growth (FIG. 4b)” value is reported as “did not exhibit an effect on tumor cell growth”.
In the case of B2, the “effect on tumor cell growth (FIG. 4b)” value is reported as “did not exhibit an effect on tumor cell growth”.
B3 was tested, and the “effect on tumor cell growth (FIG. 4b)” value was “did not exhibit an effect on tumor cell growth”.

tested on: MDA-MB-231 cells; assay: Endocytosis capacity of murine monoclonal antibody (flow cytometry internalization); type: cell-based, human; conditions: MDA-MB-231, 0.5 h at 37° C., antibody 1.5 μg/mL
Protocol: (§2) The endocytosis capacity of the antibody was detected for 0.5 to 2 hours. MDA-MB-231 and PC3 cells were subjected to digestion with 5 mM EDTA, and plated at 4×10^4 cells/well after cell counting. After adding an Fc blocker (Human TruStain FcX™, Biolegend, 422302) and blocking at room temperature for 10 mins, a test antibody (1.5 μg/mL) was added, and the mixture was incubated at 4° C. for 30 mins, centrifuged, and washed twice with PBS+2% FBS, then the cells were divided into four equal portions (labeled as 0 h, 0.5 h, 1 h, 2 h), cells labeled as 0.5 h, 1 h, 2 h time points were added to a cell culture medium at 200 µL/well, and cultured at 37° C. for 0.5 h, 1 h, 2 h, respectively. Cells at 0 h point were centrifuged to remove supernatant, a secondary antibody (PE anti-human IgG Fc Antibody, Biolegend, 410708) was added, and the mixture was incubated at 4° C. for 30 mins, centrifuged, and washed twice with PBS+2% FBS, and detection was performed using a flow cytometer. After incubation of cells labeled as 0.5 h, 1 h, and 2 h points at 37° C. was completed, a secondary antibody was added (in the same steps as those at 0 h point), Geo-MFI of the signal under the same voltage was collected as detection signal at 0 h, and antibody internalization rate was calculated according to the following equation: Internalization (%)=(Geo-MFI (0 h)-Geo-MFI (0.5, 1, 2 h))/Geo-MFI (0 h)×100%.

First: B1
Second: B2
The “Internalization MDA-MB-231 (%) 0.5 h” value of the first is lower: 24.06% for the first, 26.56% for the second.

Compared with B4, B5 is lower in “Internalization MDA-MB-231 (%) 0.5 h” value: 76.41% for the first, 18.01% for the second.

Compared with B6, B7 is higher in “Internalization MDA-MB-231 (%) 0.5 h” value: 84.77% for the first, 93.40% for the second.

With B8 the “Internalization MDA-MB-231 (%) 0.5 h” value was 0.00%.

same assay, conditions: MDA-MB-231, 1 h at 37° C., antibody 1.5 μg/mL

First: B1
Second: B2
The “Internalization MDA-MB-231 (%) 1 h” value of the first is lower: 32.99% for the first, 37.08% for the second.

Compared with B4, B5 is lower in “Internalization MDA-MB-231 (%) 1 h” value: 82.73% for the first, 27.41% for the second.

First: B6
Second: B7
The “Internalization MDA-MB-231 (%) 1 h” value of the first is higher: 91.47% for the first, 90.57% for the second.

In the case of B8, the “Internalization MDA-MB-231 (%) 1 h” value is reported as 0.00%.

same assay, conditions: MDA-MB-231, 2 h at 37° C., antibody 1.5 μg/mL

Going from B1 to B2, the “Internalization MDA-MB-231 (%) 2 h” value rises from 50.21% to 51.59%.

Compared with B4, B5 is lower in “Internalization MDA-MB-231 (%) 2 h” value: 89.16% for the first, 48.49% for the second.

Compared with B6, B3 is lower in “Internalization MDA-MB-231 (%) 2 h” value: 95.13% for the first, 63.32% for the second.

Going from B7 to B8, the “Internalization MDA-MB-231 (%) 2 h” value falls from 98.74% to 0.00%.

tested on: PC3 cells; assay: as above; type: cell-based, human; conditions: PC3, 0.5 h at 37° C., antibody 1.5 μg/mL
Protocol: as §2

First: B1
Second: B2
The “Internalization PC3 (%) 0.5 h” value of the first is higher: 28.18% for the first, 24.63% for the second.

Compared with B4, B5 is lower in “Internalization PC3 (%) 0.5 h” value: 76.08% for the first, 14.05% for the second.

Compared with B6, B7 is higher in “Internalization PC3 (%) 0.5 h” value: 78.02% for the first, 90.84% for the second.

In the case of B8, the “Internalization PC3 (%) 0.5 h” value is reported as 0.00%.

same assay, conditions: PC3, 1 h at 37° C., antibody 1.5 μg/mL

First: B1
Second: B2
The “Internalization PC3 (%) 1 h” value of the first is higher: 40.11% for the first, 39.13% for the second.

First: B4
Second: B5
The “Internalization PC3 (%) 1 h” value of the first is higher: 83.52% for the first, 31.25% for the second.

Compared with B6, B7 is higher in “Internalization PC3 (%) 1 h” value: 87.36% for the first, 94.04% for the second.

With B8 the “Internalization PC3 (%) 1 h” value was 0.00%.

same assay, conditions: PC3, 2 h at 37° C., antibody 1.5 μg/mL

Compared with B1, B2 is higher in “Internalization PC3 (%) 2 h” value: 54.90% for the first, 56.20% for the second.

Compared with B4, B5 is lower in “Internalization PC3 (%) 2 h” value: 88.25% for the first, 49.70% for the second.

Compared with B6, B3 is lower in “Internalization PC3 (%) 2 h” value: 94.46% for the first, 64.51% for the second.

Compared with B7, B8 is lower in “Internalization PC3 (%) 2 h” value: 96.12% for the first, 0.00% for the second.

tested on: MDA-MB-231 cells; assay: Transwell tumor cell migration experiment; type: cell-based, human; conditions: MDA-MB-231, antibody 10 μg/ml
Protocol: In order to determine the effect of antibodies on tumor cell metastasis, the migration ability of tumor cells was examined in this study according to a transwell experiment. The specific cell migration experiment involved culturing and collecting MDA-MB-231 cells, washing them once with PBS, adjusting the density to 8×10^5 cells/mL, adding the antibody to be tested to the cells such that the working concentration thereof was 10 μg/ml, co-incubating for 30 mins, adding a cell suspension to the upper chamber of the transwell chamber, placing the transwell chamber in the incubator for 12-48 h, then removing the chamber (transwell chamber, to examine cell migration ability), immobilizing the cells, staining the cells with crystal violet for 15 mins, washing, air drying, mounting, and taking photos of 4-5 fields of view under a microscope, and counting the number or area of the stained cells using imageJ analysis software, the number or area was used as the basis for determining tumor cell migration.

With B1 the “effect on tumor cell migration (transwell, FIG. 4c)” value was “better capability to inhibit tumor cell migration than SEQ135”.
For B2, the “effect on tumor cell migration (transwell, FIG. 4c)” value was “better capability to inhibit tumor cell migration than SEQ135”.
